# The list shows a part of the results.
# Tests used:
# Experiment in all cases: glycan array binding signal (z-score within array); higher = stronger binding
# Conditions in all cases: glycan notation: IUPAC condensed, linker removed
# [1] = target: Gal(a1-3)Gal(b1-4)GlcNAc(b1-2)Man
# Outline: (§1)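 The binding signal is a Z-score computed within each array. Data were drawn from 3228 arrays in the Consortium for Functional Glycomics database, restricted to those with a known protein sequence. Scores were averaged over arrays of the same protein sequence at different concentrations or buffers, and over linkers, and negative values can be taken as non-binding.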
# [2] = target: Gal(a1-3)Gal(b1-4)GlcNAc(b1-2)Man(a1-3)[Gal(a1-3)Gal(b1-4)GlcNAc(b1-2)Man(a1-6)]Man(b1-4)GlcNAc(b1-4)GlcNAc
# Outline: as §1
# [3] = target: Gal(a1-3)Gal(b1-4)GlcNAc(b1-3)GalNAc
# Outline: as §1
# [4] = target: Gal(a1-3)Gal(b1-4)GlcNAc(b1-6)GalNAc
# Outline: as §1
# [5] = target: Gal(a1-3)Gal(b1-4)[Fuc(a1-3)]GlcNAc
# Outline: as §1
# [6] = target: Gal(a1-3)Gal(b1-4)[Fuc(a1-3)]GlcNAc(b1-2)Man(a1-3)[Gal(a1-3)Gal(b1-4)[Fuc(a1-3)]GlcNAc(b1-2)Man(a1-6)]Man(b1-4)GlcNAc(b1-4)GlcNAc
# Outline: as §1
# [7] = target: Gal(a1-3)GalNAc
# Outline: as §1
# [8] = target: Gal(a1-3)[Gal(a1-4)]Gal(b1-4)GlcNAc
# Outline: as §1
# [9] = target: Gal(a1-4)Gal(b1-3)GlcNAc(b1-2)Man(a1-3)[Gal(a1-4)Gal(b1-3)GlcNAc(b1-2)Man(a1-6)]Man(b1-4)GlcNAc(b1-4)GlcNAc
# Outline: as §1
# [10] = target: Gal(a1-4)Gal(b1-4)Glc
# Outline: as §1
# [11] = target: Gal(a1-4)Gal(b1-4)GlcNAc
# Outline: as §1
# [12] = target: Gal(a1-4)Gal(b1-4)GlcNAc(b1-2)Man(a1-3)[Gal(a1-4)Gal(b1-4)GlcNAc(b1-2)Man(a1-6)]Man(b1-4)GlcNAc(b1-4)GlcNAc
# Outline: as §1
# [13] = target: Gal(a1-4)Gal(b1-4)GlcNAc(b1-3)Gal(b1-4)Glc
# Outline: as §1
# [14] = target: Gal(a1-4)GlcNAc
# Outline: as §1
# [15] = target: Gal(a1-6)Glc
# Outline: as §1
# [16] = target: Gal(b1-2)Gal
# Outline: as §1
# [17] = target: Gal(b1-3)Gal
# Outline: as §1
# [18] = target: Gal(b1-3)Gal(b1-4)GlcNAc
# Outline: as §1
# [19] = target: Gal(b1-3)GalNAc
# Outline: as §1
# [20] = target: Gal(b1-3)GalNAc(a1-3)[Fuc(a1-2)]Gal(b1-4)Glc
# Outline: as §1
# [21] = target: Gal(b1-3)GalNAc(a1-3)[Fuc(a1-2)]Gal(b1-4)GlcNAc
# Outline: as §1
# [22] = target: Gal(b1-3)GalNAc(b1-3)Gal
# Outline: as §1
# [23] = target: Gal(b1-3)GalNAc(b1-3)Gal(a1-4)Gal(b1-4)Glc
# Outline: as §1
# [24] = target: Gal(b1-3)GalNAc(b1-4)Gal(b1-4)Glc
# Outline: as §1
# [25] = target: Gal(b1-3)GalNAc(b1-4)[Neu5Ac(a2-3)]Gal(b1-4)Glc
# Outline: as §1
# [26] = target: Gal(b1-3)GlcNAc
# Outline: as §1
# [27] = target: Gal(b1-3)GlcNAc(a1-3)Gal(b1-4)GlcNAc
# Outline: as §1
# [28] = target: Gal(b1-3)GlcNAc(a1-6)Gal(b1-4)GlcNAc
# Outline: as §1
# [29] = target: Gal(b1-3)GlcNAc(b1-2)Man
# Outline: as §1
# [30] = target: Gal(b1-3)GlcNAc(b1-2)Man(a1-3)[Gal(b1-3)GlcNAc(b1-2)Man(a1-6)]Man(b1-4)GlcNAc(b1-4)GlcNAc
# Outline: as §1
# [31] = target: Gal(b1-3)GlcNAc(b1-2)Man(a1-3)[Gal(b1-3)GlcNAc(b1-2)Man(a1-6)]Man(b1-4)GlcNAc(b1-4)[Fuc(a1-6)]GlcNAc
# Outline: as §1
# [32] = target: Gal(b1-3)GlcNAc(b1-2)Man(a1-3)[GlcNAc(b1-4)][Gal(b1-3)GlcNAc(b1-2)Man(a1-6)]Man(b1-4)GlcNAc(b1-4)GlcNAc
# Outline: as §1
# [33] = target: Gal(b1-3)GlcNAc(b1-2)[Gal(b1-3)GlcNAc(b1-6)]Man(a1-6)[Gal(b1-3)GlcNAc(b1-2)Man(a1-3)]Man(b1-4)GlcNAc(b1-4)GlcNAc
# Outline: as §1
# [34] = target: Gal(b1-3)GlcNAc(b1-3)Gal(b1-3)GlcNAc
# Outline: as §1
# [35] = target: Gal(b1-3)GlcNAc(b1-3)Gal(b1-4)Glc
# Outline: as §1
# [36] = target: Gal(b1-3)GlcNAc(b1-3)Gal(b1-4)GlcNAc
# Outline: as §1
# [37] = target: Gal(b1-3)GlcNAc(b1-3)Gal(b1-4)GlcNAc(b1-2)Man(a1-3)[Gal(b1-3)GlcNAc(b1-3)Gal(b1-4)GlcNAc(b1-2)Man(a1-6)]Man(b1-4)GlcNAc(b1-4)GlcNAc
# Outline: as §1
# [38] = target: Gal(b1-3)GlcNAc(b1-3)Gal(b1-4)GlcNAc(b1-2)[Gal(b1-3)GlcNAc(b1-3)Gal(b1-4)GlcNAc(b1-6)]Man(a1-6)[Gal(b1-3)GlcNAc(b1-3)Gal(b1-4)GlcNAc(b1-2)Man(a1-3)]Man(b1-4)GlcNAc(b1-4)[Fuc(a1-6)]GlcNAc
# Outline: as §1
# [39] = target: Gal(b1-3)GlcNAc(b1-3)Gal(b1-4)GlcNAc(b1-3)Gal(b1-4)GlcNAc(b1-2)[Gal(b1-3)GlcNAc(b1-3)Gal(b1-4)GlcNAc(b1-3)Gal(b1-4)GlcNAc(b1-6)]Man(a1-6)[Gal(b1-3)GlcNAc(b1-3)Gal(b1-4)GlcNAc(b1-3)Gal(b1-4)GlcNAc(b1-2)Man(a1-3)]Man(b1-4)GlcNAc(b1-4)[Fuc(a1-6)]GlcNAc
# Outline: as §1
# [40] = target: Gal(b1-3)GlcNAc(b1-3)Gal(b1-4)GlcNAc(b1-6)[Gal(b1-3)GlcNAc(b1-3)]Gal(b1-4)Glc
# Outline: as §1
# [41] = target: Gal(b1-3)GlcNAc(b1-3)Gal(b1-4)[Fuc(a1-3)]GlcNAc
# Outline: as §1
# [42] = target: Gal(b1-3)GlcNAc(b1-3)Gal(b1-4)[Fuc(a1-3)]GlcNAc(b1-6)[Gal(b1-3)GlcNAc(b1-3)]Gal(b1-4)Glc
# Outline: as §1
# [43] = target: Gal(b1-3)GlcNAc(b1-3)GalNAc
# Outline: as §1
# [44] = target: Gal(b1-3)GlcNAc(b1-6)Gal(b1-4)GlcNAc
# Outline: as §1
# [45] = target: Gal(b1-3)GlcNAc(b1-6)GalNAc
# Outline: as §1
binder,measurement,setting,value
GNL (Galanthus nivalis) (protein) MGHHHHHHHHYGTLENGHWLMVGMSIFSKDRTVELRMQDDGKLAIYYNDHCAWQSTAQQVNNAKGAVMQGDGNFCIYDKNGKATWHTNTAAPSGDSHTFVSVQDDGNLVLYKNNGATPIWSSKSNK,glycan array binding signal (z-score),[1],-0.268
same,glycan array binding signal (z-score),[2],3.44
same,glycan array binding signal (z-score),[3],-0.119
same,glycan array binding signal (z-score),[4],-0.264
same,glycan array binding signal (z-score),[5],-0.243
same,glycan array binding signal (z-score),[6],-0.054
same,glycan array binding signal (z-score),[7],-0.219
same,glycan array binding signal (z-score),[8],-0.01
same,glycan array binding signal (z-score),[9],4.92
same,glycan array binding signal (z-score),[10],-0.168
same,glycan array binding signal (z-score),[11],-0.126
same,glycan array binding signal (z-score),[12],5.71
same,glycan array binding signal (z-score),[13],-0.189
same,glycan array binding signal (z-score),[14],-0.291
same,glycan array binding signal (z-score),[15],-0.324
same,glycan array binding signal (z-score),[16],-0.164
same,glycan array binding signal (z-score),[17],-0.197
same,glycan array binding signal (z-score),[18],-0.192
same,glycan array binding signal (z-score),[19],-0.233
same,glycan array binding signal (z-score),[20],-0.26
same,glycan array binding signal (z-score),[21],-0.284
same,glycan array binding signal (z-score),[22],-0.22
same,glycan array binding signal (z-score),[23],-0.229
same,glycan array binding signal (z-score),[24],-0.061
same,glycan array binding signal (z-score),[25],-0.22
same,glycan array binding signal (z-score),[26],-0.255
same,glycan array binding signal (z-score),[27],-0.174
same,glycan array binding signal (z-score),[28],-0.198
same,glycan array binding signal (z-score),[29],-0.16
same,glycan array binding signal (z-score),[30],4.54
same,glycan array binding signal (z-score),[31],0.539
same,glycan array binding signal (z-score),[32],-0.125
same,glycan array binding signal (z-score),[33],-0.257
same,glycan array binding signal (z-score),[34],-0.228
same,glycan array binding signal (z-score),[35],-0.244
same,glycan array binding signal (z-score),[36],-0.228
same,glycan array binding signal (z-score),[37],0.126
same,glycan array binding signal (z-score),[38],-0.017
same,glycan array binding signal (z-score),[39],-0.118
same,glycan array binding signal (z-score),[40],-0.213
same,glycan array binding signal (z-score),[41],-0.273
same,glycan array binding signal (z-score),[42],-0.163
same,glycan array binding signal (z-score),[43],-0.251
same,glycan array binding signal (z-score),[44],-0.21
same,glycan array binding signal (z-score),[45],-0.317

# — the supplement of paper PMC8728848
